# In PubChem BioAssay AID686979 (National Center for Advancing Translational Sciences (NCATS), 2013):
# Hit rate of the full screen: of about 420,000 compounds, about 50,000 (12%) were called active. This list was built around the results that the source calls inconclusive (neither active nor inactive); the mix of calls is not that of the screen. Calls come from the whole dose curve; as a rule, active = well fitted inhibition curve with a large enough effect; inconclusive = small, poorly fitted or top-dose-only effect; inactive = flat fitted curve, though single readings scatter. Potencies of inconclusive entries are left out as doubtful fits.
# Assay: qHTS for Inhibitors of human tyrosyl-DNA phosphodiesterase 1 (TDP1): qHTS in cells in presence of CPT; note: nearly all actives have a fitted effect of over 55% in size
# Conditions: chicken DT40 Tdp1-/-;hTDP1 cells + 20 nM CPT, ATP luminescence, 48 h; activity change, negative = growth inhibition: at 46.2 µM (top of the series) unless noted
# Procedure, shortened: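 Cell growth measured by CellTiter-Glo luminescence after a minimum 48 h, 37 C compound exposure with 20 nM CPT in Tdp1-knockout DT40 cells stably expressing hTDP1, seeded 400/well; qHTS titration format.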
# % is set by controls: 0 for no effect and ±100 for the full control effect; potency is the fitted concentration of half-maximal effect; tags give direction and shape of the fitted curve.
Structure (SMILES),Potency,"activity change, negative = growth inhibition"
N#Cc1c(C(F)(F)F)cc(-c2ccccc2)nc1SCCN1CCOCC1,active: 20.6 µM,
CC(=O)c1ccc(N2CCN(C(=O)Cc3n[nH]c(=O)c4ccccc34)CC2)cc1,"inconclusive [inhibitor, partial curve, poor fit]",
CC1Oc2ccccc2N(Cc2ccc(F)cc2)C1=O (configuration not stated),inactive,
C[C@H](CO)N1C[C@H](C)[C@@H](CN(C)Cc2ccc(C(=O)O)cc2)OCc2cnnn2CCCC1=O,inactive,
COC(=O)c1ccc(COc2cccn3c(N(C)C(=O)CCC4CCCC4)c(C)nc23)cc1,active: 18.4 µM,
O=[N+]([O-])c1ccc(Sc2ccccn2)nc1,inactive,
CCOc1cc(C)ccc1OCc1nnc(SCC(=O)c2cccc([N+](=O)[O-])c2)n1CC,"inconclusive [inhibitor, single point]",
COc1ccc2c(CNCc3cccs3)c(C(=O)O)n(Cc3ccc(F)cc3)c2c1,active: 18.4 µM,
CN(CCOc1ccccc1)C(=O)C1CCC(=O)N(CCc2ccc(Cl)cc2)C1 (configuration not stated),"inconclusive [inhibitor, single point]",
COc1cc(/C=N\NC(=O)c2ccc(=O)[nH]n2)cc(OC)c1OC,"inconclusive [inhibitor, single point]",
OCCCn1c(C(CO)Nc2nc(-c3ccc(Cl)cc3)cs2)nc2ccccc21 (configuration not stated),"inconclusive [inhibitor, single point]",
CCCc1ccccc1OCCNC(=O)c1cc(=O)n(C)c(=O)n1C,inactive,
Cc1cc(NC(=O)CCNS(=O)(=O)c2cc(Br)cnc2N)ccc1Br,inactive,
O=C(c1cc2c(c(-c3cccc(-c4ccncc4)c3)n1)[C@H](CCO)N(C(=O)c1ccc3c(c1)OCO3)C2)N1CCOCC1,"inconclusive [inhibitor, single point]",
O=C(NCCc1ccccc1)C1CCN(C(=O)c2ccc(F)cc2)CC1,"inconclusive [inhibitor, partial curve]",
CCN(C(=O)CSc1nc(C)nc2sc3c(c12)CCC3)C1CCS(=O)(=O)C1 (configuration not stated),"inconclusive [inhibitor, single point]",
Cc1ccc(-c2cc(C(=O)Nc3nccs3)c3ccccc3n2)c(C)c1,active: 13 µM,
CC[C@@]12C(=O)N(c3cccc(Br)c3)C(=O)N1[C@H](c1cccc(C)c1)[C@@H]1C(=O)N(Cc3ccccc3)C(=O)[C@@H]12,"inconclusive [inhibitor, single point]",
Cc1ccc(-n2nc3c(=O)n(C(C)C(=O)NCc4ccc(OC(C)C)cc4)nc(C)c3c2C)cc1 (configuration not stated),active: 16.4 µM,
Oc1ccc(/C=N/N=C(c2ccccc2)c2ccccc2)c(O)c1O,"inconclusive [inhibitor, single point]",
Cc1occc1C(=O)O/N=C(\N)c1ccccc1,"inconclusive [inhibitor, single point]",

Structure (SMILES),Potency,"activity change, negative = growth inhibition"
OCCC1CN(Cc2cccc(OC3CCCC3)c2)CCN1Cc1ccsc1 (configuration not stated),"inconclusive [inhibitor, single point]",
O=C(NC1CCCCC1)C(c1cccs1)N(C(=O)c1ccco1)c1ccc2c(c1)OCCO2 (configuration not stated),"inconclusive [inhibitor, single point]",
NC(=O)CSc1ncnc2c1nnn2Cc1ccc(F)cc1,inactive,
C=CCOC(=O)C1=C[C@@H](c2ccc3c(c2)OCO3)C[C@@H](OCCCCO)O1,"inconclusive [inhibitor, partial curve]",
CCC(Cc1ccccc1)NC(=O)Cn1nc(C)n2c(cc3occc32)c1=O (configuration not stated),,inconclusive: -34.8% [inhibitor]
CC1=CC(C)(C)N(C(=O)CNC2CCCC2)c2cc(C)ccc21,"inconclusive [inhibitor, single point]",
Cc1cccc(NC(=S)NC(=O)c2oc3ccccc3c2C)n1,"inconclusive [inhibitor, full curve]",
Cc1cc(Br)cn2c(Cc3cccc(Cl)c3)c(-c3cccc(Cl)c3)nc12,"inconclusive [inhibitor, single point]",
CC(=O)N(C(C)=O)c1ccc(Oc2ccc(Oc3ccc(N(C(C)=O)C(C)=O)cc3)cc2)cc1,"inconclusive [inhibitor, single point]",
CCCCn1c(=O)n(CC2CCC(C(=O)NCCCOC)CC2)c(=O)c2sccc21 (configuration not stated),inactive,
CC(NC(=O)c1ccc([N+](=O)[O-])cc1Cl)C1CC2CCC1C2 (configuration not stated),"inconclusive [inhibitor, single point]",
Cc1ccc(S(=O)(=O)N2[C@@H](c3cccc(Cl)c3)C(C(=O)OC(C)(C)C)=CC[C@H]2c2ccc(C(C)C)cc2)cc1,"inconclusive [inhibitor, partial curve, poor fit]",
COc1ccc(-c2nc(CSCC(=O)N3CCc4ccccc43)c(C)o2)cc1OC,"inconclusive [inhibitor, partial curve]",
CC(C)Cn1cc(NC(=O)N2CCN(c3ccc(F)cc3)CC2)c2ccccc2c1=O,active: 14.6 µM,
CC(=O)c1ccc(NC(=O)CSC2=Nc3ccccc3N=C(c3ccc(F)cc3)C2)cc1,active: 16.4 µM,
CC(C)C(=O)N1CCN(c2ccc(NC(=S)NC(=O)c3cc4ccccc4o3)cc2)CC1,"inconclusive [inhibitor, single point]",
CN(C(=O)c1ccc(NC(=O)C2CCCN(C(=O)OC(C)(C)C)C2)cc1)C1CCC1 (configuration not stated),"inconclusive [inhibitor, single point]",
O=C(CN1C(=O)c2ccccc2C1=O)NC1(C(=O)O)CCCC1,,inconclusive: 2.51% [inhibitor]
O=S(=O)(NCC(c1ccccc1)N1CCNCC1)c1ccc(Cl)cc1 (configuration not stated),"inconclusive [inhibitor, single point]",
CCN1CCN(c2nc(N)c([N+](=O)[O-])c(Nc3ccc(C)cc3)n2)CC1,"inconclusive [inhibitor, single point]",
COc1ccccc1C(=O)Cc1ccccc1,inactive,
